# Screen size: about 310,000 compounds; about 14,000 (4.5%) showed an effect of 50% or more. Effects have a minus sign here. Some of the results follow.
# Molecular target: human ether-à-go-go-related gene (hERG) potassium channel (human, UniProt Q12809)
# Experiment: primary screen, population patch clamp on CHO cells stably expressing hERG
# 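Also: peak tail current of the secondary pulse compared with the same well before compound.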
# Sequence of human ether-à-go-go-related gene (hERG) potassium channel (Q12809 whole entry, looked up): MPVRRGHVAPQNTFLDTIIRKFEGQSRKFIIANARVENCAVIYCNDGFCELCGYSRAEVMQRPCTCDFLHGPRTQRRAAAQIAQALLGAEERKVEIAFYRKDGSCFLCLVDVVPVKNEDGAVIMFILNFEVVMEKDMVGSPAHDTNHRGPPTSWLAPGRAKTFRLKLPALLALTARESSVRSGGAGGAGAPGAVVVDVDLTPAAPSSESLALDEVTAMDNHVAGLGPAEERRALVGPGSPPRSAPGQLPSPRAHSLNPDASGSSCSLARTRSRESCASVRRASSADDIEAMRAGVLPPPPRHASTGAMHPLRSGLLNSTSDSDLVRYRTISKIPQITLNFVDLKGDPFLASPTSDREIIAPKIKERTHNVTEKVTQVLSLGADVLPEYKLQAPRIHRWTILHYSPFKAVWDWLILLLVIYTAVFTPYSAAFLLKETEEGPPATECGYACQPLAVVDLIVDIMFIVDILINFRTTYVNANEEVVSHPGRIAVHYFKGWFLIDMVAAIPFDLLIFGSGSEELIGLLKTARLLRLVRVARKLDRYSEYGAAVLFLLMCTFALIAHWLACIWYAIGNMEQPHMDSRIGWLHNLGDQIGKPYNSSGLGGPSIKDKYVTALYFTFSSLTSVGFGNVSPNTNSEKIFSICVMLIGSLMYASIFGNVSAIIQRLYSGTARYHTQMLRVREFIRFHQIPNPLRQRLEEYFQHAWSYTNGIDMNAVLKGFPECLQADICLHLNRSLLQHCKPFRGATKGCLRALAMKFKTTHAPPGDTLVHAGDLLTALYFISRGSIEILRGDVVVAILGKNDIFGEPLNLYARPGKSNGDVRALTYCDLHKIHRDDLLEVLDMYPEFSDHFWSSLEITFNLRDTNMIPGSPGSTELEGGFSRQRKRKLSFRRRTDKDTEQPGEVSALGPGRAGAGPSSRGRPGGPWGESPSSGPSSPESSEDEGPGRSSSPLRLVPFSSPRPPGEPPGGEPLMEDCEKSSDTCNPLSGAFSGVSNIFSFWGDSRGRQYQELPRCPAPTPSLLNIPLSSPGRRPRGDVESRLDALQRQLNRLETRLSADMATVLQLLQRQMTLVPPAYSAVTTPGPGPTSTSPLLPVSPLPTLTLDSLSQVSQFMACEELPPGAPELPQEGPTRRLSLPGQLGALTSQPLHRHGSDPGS
row,SMILES,"hERG current change (%, negative = inhibition) at 10uM [%]"
1,CN(C)S(=O)(=O)c1ccc(N2CCOCC2)c(C(=O)NCc2ccc3c(c2)OCO3)c1,-14.7
2,CCOc1ccc(N(CC(=O)NC2CCCC2)C(=O)CCC(=O)Nc2nc(C)cs2)cc1,-28.8
3,CCOC(=O)N1CCN(C(=O)CSc2nnc(C3COc4ccccc4O3)o2)CC1 (centres unmarked),-11.5
4,CN(Cc1cccc(-n2cccn2)c1)C(=O)CCc1nnc(C2CCCCC2)o1,-6.68
5,CCCCc1cc(=O)oc2c(CN(CC)CC)c(O)c(Cl)cc12,-41.8
6,O=C(Oc1ccc(C(=S)N2CCOCC2)cc1)c1ccc(Br)cc1,27.7
7,CC(C)(C)OC(=O)NNC(=S)NCc1ccc(Cl)cc1,3.52
8,CC(C)c1ccc(N2CC(C(=O)Nc3nccs3)CC2=O)cc1 (centres unmarked),1.98
9,CCCC[n+]1cc(/N=C(\[O-])OC)on1,9.45
10,COc1ccc(C(C(=O)NCC2CCCO2)N(C(=O)Cn2nnc3ccccc32)c2ccc(NC(C)=O)cc2)c(OC)c1 (centres unmarked),9.04
11,O=C(COC(=O)c1ccccn1)Nc1cccc(Cl)c1Cl,14.6
12,CC(=O)N1CCN(S(=O)(=O)c2cccc(C(=O)NC3CCC(C)CC3)c2)CC1 (centres unmarked),12.7
13,Cc1ccc(S(=O)(=O)ON2C(=O)c3cccc4cccc(c34)C2=O)cc1,17.9
14,N#CC(c1ccc(F)cc1)c1ccc(C(=O)c2ccccc2)cc1 (centres unmarked),6.9
15,CC(C)CCn1c(NCCN(C)C)nc2c1c(=O)[nH]c(=O)n2C,-23.2
16,Cn1c(=O)c(=O)n(C)c2cc(N3CCCC3)c(NS(=O)(=O)c3ccc(F)cc3)cc21,-16.2
17,C/C(=N/O)c1ccccn1,0.00038
18,O=C(COC(=O)Cc1ccccc1)Nc1ccc(F)cc1,16.9
19,CCC(C)(C)NC(=O)CN(C(=O)CCC(=O)Nc1nccs1)c1ccccc1C,9.49

row,SMILES,"hERG current change (%, negative = inhibition) at 10uM [%]"
1,O=C(Cc1ccc([N+](=O)[O-])cc1)Nc1ccc(O)cc1C(=O)O,2.78
2,CC(=O)C(C)n1cnc2scc(-c3ccc(C)cc3)c2c1=O (centres unmarked),3.91
3,CCN(Cc1ccncc1)C(=O)c1ccc(C)o1,-0.494
4,Cc1cc(Nc2ccc(N(C)C)cc2)n2ncnc2n1,11.7
5,O=C(NCC1CCCO1)c1ccc(S(=O)(=O)N2CCC(c3nc4ccc(Cl)cc4[nH]3)CC2)cc1 (centres unmarked),-18
6,O=C(c1oc2ccccc2c1CSCc1ccccc1)N1CCN(c2ncccn2)CC1,1.59
7,O=C(Nc1ccccc1C(=O)O)c1cncc(Br)c1,15.9
8,COCCNC(=O)Cn1cc(C(=S)N2CCCCC2)c2ccccc21,18.7
9,Cc1nn(-c2ccccc2)c(C)c1C(=O)N1CCN(S(=O)(=O)c2ccccc2)CC1,-25
10,O=C(c1ccc2c(c1)CCN2S(=O)(=O)c1ccccc1)N1CCN(c2ccccc2F)CC1,6.59
11,CCOC(=O)C1=C(C)NC(=O)NC1c1ccc([N+](=O)[O-])o1 (centres unmarked),2.29
12,Cc1cc(C)cc(NC(=O)CN2CCc3ccccc3C2)c1,-10.2
13,CC1CCc2nn(CC(=O)NCCCN3CCCC3=O)cc2C1 (centres unmarked),10.2
14,CCOC(=O)Cc1csc(NC(=O)c2ccc(C)c(S(=O)(=O)N3CCOCC3)c2)n1,-32
15,CC(C)CN(C(=O)/C=C/c1nc2ccccc2s1)C1CCS(=O)(=O)C1 (centres unmarked),-6.49
16,COc1cc(-c2nc3ccc(N4CCN(C)CC4)cc3[nH]2)cc(OC)c1OC,15.5
17,CC1CCN(C(=O)COC(=O)c2n[nH]c(=O)c3ccccc23)CC1,-5.73
18,O=C1N(S(=O)(=O)c2ccccc2F)C(=O)C2(CCCC2)N1S(=O)(=O)c1ccccc1F,6.04
19,O=C(CN1C(=O)S/C(=C/c2ccncc2)C1=O)Nc1ccccc1,6.44

row,SMILES,"hERG current change (%, negative = inhibition) at 10uM [%]"
1,O=C(O)C(Cc1cn[nH]n1)=NO,10.2
2,Nn1c(SCC(=O)NC2CCCCC2)nnc1-c1ccccc1,-0.171
3,COC(=O)c1cc(Br)c(=O)n(CCN2CCCCC2)c1,11.9
4,Cc1nn(Cc2ccc(C(=O)N3c4ccc(F)cc4CCC3C)o2)c(C)c1Br (centres unmarked),-30.5
5,CC1CCN(S(=O)(=O)c2ccc(C(=O)NC3CCS(=O)(=O)C3)cc2)CC1 (centres unmarked),-5.94
6,COc1ccccc1N1CCN(C2CCCN(C(=O)c3cscn3)C2)CC1 (centres unmarked),11.3
7,O=C(CN1CCN(C/C=C/c2ccccc2)CC1)NCc1ccccc1,-73.3
8,CC(C)CC(C(=O)O)N(Cc1ccccc1)Cc1ccccc1 (centres unmarked),0.82
9,Cc1ccc(S(=O)(=O)N2CCCC2C(=O)OCc2nc3ccccc3s2)cc1 (centres unmarked),-5.18
10,Cc1ccc(C2CC(c3ccc(F)cc3)Nc3nc(N)nn32)cc1 (centres unmarked),5.79
11,O=c1[nH]c2cc3c(cc2cc1CN(CC1CCCO1)S(=O)(=O)c1ccc(Cl)cc1)OCCO3 (centres unmarked),-9.98
12,CCc1nc(N)c(C#N)c(-c2cccnc2)c1C,1.48
13,Cc1cccc(NC(=O)Nc2ccc(Oc3c(F)c(F)c(F)c(F)c3F)cc2)c1,-9.16
14,CCOC(=O)C1(CCOC)CCN(Cc2cnc(-c3cccc(C)c3)nc2)CC1,-5.81
15,CC(=O)Nc1ccc(C(=O)/C=C/c2ccco2)cc1,5.69
16,COc1cccc(C(=O)NCC(=O)OCC(=O)Nc2ncc(Cl)cc2Cl)c1,16.7
17,O=C(OCc1nc2ccc(Cl)cc2n1CCO)c1ccccc1C(=O)c1ccccc1,-9.65
18,Cc1ccc(N(C)C(=O)n2cnc3ccccc32)cc1,-1.52

# — publication PMC4336329 (PLoS ONE, 2015)
